The source of these data is the supplement of paper PMC2702839.

The structures appear in SMILES notation. Where a name gives a salt, the structure may show the parent alone. The list shows a part of the results.

This experiment concerns Schistosoma mansoni schistosomula. Briefly: phenotypic hit in primary schistosomula screen (any phenotype vs DMSO control) (binary (1 = hit, 0 = no phenotype)); higher = active (phenotype induced). Particulars: 1 µM; time (d): 7.
`CC(C)CCC[C@@H](C)[C@H]1CC[C@H]2[C@@H]3C[C@@H](O)[C@@]4(O)C[C@@H](O)CC[C@]4(C)[C@H]3CC[C@]12C` [cholestan-3beta,5alpha,6beta-triol]: the phenotypic hit was inactive: 0. In the case of `C/C=C(\C)C(=O)O[C@@H]1c2c(ccc3ccc(=O)oc23)OC(C)(C)[C@@H]1OC(C)=O` [pteryxin], the phenotypic hit was inactive: 0. Turning to `CC(=O)OCC(=O)[C@@]1(O)CC[C@H]2[C@@H]3CCC4=CC(=O)C=C[C@]4(C)[C@H]3[C@@H](O)C[C@@]21C` [prednisolone acetate], the phenotypic hit is inactive: 0. Next, `C[C@]12CCC(=O)C=C1CC[C@@H]1[C@@H]2[C@@H](O)C[C@@]2(C)[C@H]1CC[C@]2(O)C(=O)COP(=O)(O)O` [hydrocortisone sodium phosphate]: inactive: 0; `CC[C@H](c1ccc(O)cc1)[C@@H](CC)c1ccc(O)cc1` [hexestrol]: inactive: 0; `C=CC1=C(C)/C(=C/c2[nH]c(Cc3[nH]c(/C=C4\NC(=O)C(C)=C4C=C)c(C)c3CCC(=O)O)c(CCC(=O)O)c2C)NC1=O` [bilirubin]: inactive: 0. To `CC(C)=CCCC1(C)C=Cc2c(O)c3c(c(CC=C(C)C)c2O1)OC12C(=CCCC1C(C)(C)O[C@@]2(C/C=C(\C)C(=O)O)C(=O)O)C3=O` (stereo partly specified) [garcinolic acid] belongs inactive: 0. To `C=C1CC[C@H](O)C/C1=C/C=C1\CCC[C@]2(C)[C@@H]([C@H](C)/C=C/[C@H](C)C(C)C)CC[C@@H]12` [ergocalciferol] belongs inactive: 0; to `Nc1nc(N)c2nc(-c3ccccc3)c(N)nc2n1` [Triamterene], inactive: 0; to `COc1cccc(O)c1O` [3-methoxycatechol], inactive: 0. `CCCCOc1ccc(C(=O)CCN2CCCCC2)cc1` [dyclonine hydrochloride]: the phenotypic hit was active: 1. To `COc1ccc(CCC(=O)c2c(O)cc(O[C@@H]3O[C@H](CO)[C@@H](O)[C@H](O)[C@H]3O[C@@H]3O[C@@H](C)[C@H](O)[C@@H](O)[C@H]3O)cc2O)cc1O` [neohesperidin dihydrochalcone] belongs inactive: 0. Next, `CC(C)(C)CC(C)(C)c1ccc(OCCOCC[N+](C)(C)Cc2ccccc2)cc1` [benzethonium chloride]: inactive: 0. Turning to `CC(=O)/C(=C\c1ccccc1)CC(=O)O` [levulinic acid,  3-benzylidenyl-], the phenotypic hit was inactive: 0. `OC(CCN1CCCC1)(c1ccccc1)C1CCCCC1` (stereo unspecified) [procyclidine hydrochloride]: the phenotypic hit is inactive: 0. Next, `CC(C)NCC(O)COc1cccc2[nH]ccc12` (stereo unspecified) [Pindolol]: inactive: 0; `CC(C)=CCC[C@@H](C)[C@@H]1CC[C@]2(C)C3=C(CC[C@@]12C)[C@@]1(C)CC[C@H](O)C(C)(C)[C@@H]1CC3` [euphol]: inactive: 0. To `COC(=O)[C@H]1[C@H]2C[C@H]3c4[nH]c5ccccc5c4CCN3C[C@H]2CC[C@@H]1O` [Rauwolscine hydrochloride] belongs inactive: 0.

Turning to `C[C@@H]([C@H]1OC(C)(C)[C@@H](O)[C@H]1O)[C@@H]1CC[C@]2(C)C3=CC[C@H]4C(C)(C)C(=O)CC[C@]4(C)[C@H]3CC[C@@]12C` [odoratone], the phenotypic hit is inactive: 0. Next, `CC(CN(C)C)CN1c2ccccc2CCc2ccccc21` (stereo unspecified) [trimipramine maleate]: inactive: 0; `C[C@H]1[C@H]2CC[C@H]3[C@@H]4CC=C5C[C@@H](N(C)C)CC[C@]5(C)[C@H]4CC[C@]23CN1C` [conessine]: inactive: 0. On to `O=C(O)c1cc(O)ccc1O` [gentisic acid], for which the phenotypic hit was inactive: 0. Next, `O=C(O[C@@H]1Cc2c(O)cc(O)cc2O[C@@H]1c1cc(O)c(O)c(O)c1-c1c([C@H]2Oc3cc(O)cc(O)c3C[C@H]2OC(=O)c2cc(O)c(O)c(O)c2)cc(O)c(O)c1O)c1cc(O)c(O)c(O)c1` [2',2'-bisepigallocatechin digallate]: inactive: 0; `CC(C)=CCc1c(O)cc2oc(C)cc(=O)c2c1O` [peucenin]: inactive: 0. Regarding `CC12CC3CC(C)(C1)CC(N)(C3)C2` [Memantine hydrochloride], the phenotypic hit is inactive: 0.

For `C#C[C@]1(O)CC[C@H]2[C@@H]3CCC4=Cc5oncc5C[C@]4(C)[C@H]3CC[C@@]21C` [danazol], the phenotypic hit is inactive: 0. To `CCOc1ccc(Cc2nccc3cc(OCC)c(OCC)cc23)cc1OCC` [ethaverine hydrochloride] belongs inactive: 0; to `O=C(Nc1ccc([N+](=O)[O-])cc1Cl)c1cc(Cl)ccc1O` [niclosamide], active: 1; to `CSCCC(N)C(=O)NC(CC(C)C)C(=O)NC(Cc1ccccc1)C(=O)O` (stereo unspecified) [methionyl-leucylphenylalanine acetate], inactive: 0. For `CN1CCCN=C1/C=C/c1cccs1` [pyrantel pamoate], the phenotypic hit was inactive: 0. To `C=C1C(N)CC2CC1C2(C)C` (stereo not drawn) [3-amino-beta-pinene] belongs inactive: 0. `CCC[C@@H]1C[C@@H](C(=O)N[C@@H]([C@H]2O[C@H](SC)[C@H](O)[C@@H](O)[C@H]2O)[C@@H](C)O)N(C)C1` [lincomycin hydrochloride]: the phenotypic hit is inactive: 0.

As for `NNC(=O)c1ccncc1` [isoniazid], the phenotypic hit was inactive: 0. As to `COc1ccc(/C=C/c2cc(O)cc(O[C@@H]3O[C@H](CO)[C@@H](O)[C@H](O)[C@H]3O)c2)cc1O` [rhapontin], the phenotypic hit is inactive: 0. On to `CC1(C)CC2C1CCC1(C)OC1CCC2(C)O` (stereo unspecified) [2-hydroxy-5 (6)epoxy-tetrahydrocaryophyllene], for which the phenotypic hit is inactive: 0. Next, `CC1=CCc2c(cc3oc(C)cc(=O)c3c2O)OC1` [ptaeroxylin]: inactive: 0; `CC1(C)O[C@@H]2C[C@H]3[C@@H]4C[C@H](F)C5=CC(=O)CC[C@]5(C)[C@H]4[C@@H](O)C[C@]3(C)[C@]2(C(=O)CO)O1` [flurandrenolide]: inactive: 0; `CCC(=O)OCC(=O)[C@@]1(OC(=O)CC)[C@@H](C)C[C@H]2[C@@H]3CCC4=CC(=O)C=C[C@]4(C)[C@@]3(F)[C@@H](O)C[C@@]21C` [betamethasone 17,21-dipropionate]: inactive: 0.

For the compound `CCCCc1oc2ccccc2c1C(=O)c1cc(I)c(OCCN(CC)CC)c(I)c1` [Amiodarone hydrochloride], the phenotypic hit is inactive: 0. `O=C(O)c1cccnc1` [niacin]: the phenotypic hit is inactive: 0. To `Cc1cccc(N(C)C(=S)Oc2ccc3ccccc3c2)c1` [tolnaftate] belongs inactive: 0; to `O=c1cccc2ccc(O)c(O)c2c1O` [pyrogallin], inactive: 0; to `CCN1CCCC1CNC(=O)c1cc(S(N)(=O)=O)ccc1OC` (stereo unspecified) [sulpiride], inactive: 0. Next, `O=C(O)c1cc2cc(F)ccc2[nH]1` [5-Fluoroindole-2-carboxylic acid]: inactive: 0; `O=C(O)CCC(=O)c1ccc(-c2ccccc2)cc1` [fenbufen]: inactive: 0; `COc1ccc(-c2coc3cc(O)ccc3c2=O)c(OC)c1` [2'-methoxyformonetin]: inactive: 0. To `CCC(C)C(NC)C(=O)O` (stereo unspecified) [n-methylisoleucine] belongs inactive: 0; to `N[C@@H](Cc1ccc(O)c(O)c1)C(=O)O` [levodopa], inactive: 0. Take `COc1cc(/C=C/CO)ccc1O` [coniferyl alcohol]: the phenotypic hit is inactive: 0. Next, `CN(C)CCc1c[nH]c2ccc(CS(=O)(=O)N3CCCC3)cc12` [almotriptan]: inactive: 0; `COc1cc(O)cc(OC)c1OC` [antiarol]: inactive: 0. Regarding `COC(=O)CC1C2(C)CC34OC5(C)OC6(C7/C(=C(/O)C(C)C)C(=O)OC(c8ccoc8)C7(C)C(OC(=O)C(C)C)C(OC)C6(O5)C13C)C(OC)C4(OC)C2OC(C)=O` (stereo unspecified) [chukrasin], the phenotypic hit is inactive: 0.

As for `COC(=O)[C@H]1[C@H]2C[C@H]3c4[nH]c5cc(OC)ccc5c4CCN3C[C@H]2C[C@@H](OC(=O)c2cc(OC)c(OC)c(OC)c2)[C@@H]1OC` [isoreserpine], the phenotypic hit is inactive: 0. For the compound `C[N+](C)(C)CCOC(N)=O` [Carbachol], the phenotypic hit was inactive: 0. Take `COC(=O)C[C@H]1C2(C)CC34OC5(C)O[C@@]6([C@H](OC)C(OC(=O)C(C)C)[C@]7(C)C(/C(=C(/OC)C(C)C)C(=O)O[C@H]7c7ccoc7)[C@@]6(O5)[C@H](OC)[C@@]3(OC)C2OC(C)=O)[C@]14C` (stereo partly specified) [chukrasin methyl ether]: the phenotypic hit is inactive: 0. Next, `Cc1nc2sccn2c(=O)c1CCN1CCC(=C(c2ccc(F)cc2)c2ccc(F)cc2)CC1` [Ritanserin]: inactive: 0. To `CO[C@H]1C[C@H](O[C@@H]2/C(C)=C/C[C@@H]3C[C@@H](C[C@]4(CC[C@H](C)[C@@H](C5CCCCC5)O4)O3)OC(=O)[C@@H]3C=C(C)/C(=N/O)[C@H]4OC/C(=C\C=C\[C@@H]2C)[C@]43O)O[C@@H](C)[C@@H]1O` [selamectin] belongs inactive: 0; to `C[C@H](CCC(=O)O)[C@H]1CC[C@H]2[C@@H]3C(=O)C[C@@H]4CC(=O)CC[C@]4(C)[C@H]3CC(=O)[C@]12C` [sodium dehydrocholate], inactive: 0; to `C[C@H](CCC(=O)O)[C@H]1CC[C@H]2[C@@H]3C(=O)C[C@@H]4CC(=O)CC[C@]4(C)[C@H]3CC(=O)[C@]12C` [dehydrocholic acid], inactive: 0. To `C[C@@H]1O[C@@H](O[C@H]2[C@H](O[C@H]3CC[C@@]4(C)[C@@H](CC[C@]5(C)[C@@H]4CC=C4[C@@H]6CC(C)(C)CC[C@]6(C(=O)O)CC[C@]45C)[C@]3(C)CO)OC[C@H](O)[C@@H]2O)[C@H](O)[C@H](O)[C@H]1O` [sapindoside a] belongs inactive: 0; to `O=C1c2c(O)ccc(O)c2C(=O)c2c(NCCNCCO)ccc(NCCNCCO)c21` [mitoxanthrone hydrochloride], inactive: 0.
